# In all, about 2,900 compounds were measured (“NF-kB SEAP reporter activity, fold change vs agonist alone”: median about 0.99, highest 2% from about 2.6 on). The list shows a part of the results.
# What was measured:
# RAW-Dual [1] = assay: NF-kB SEAP reporter activity, fold change vs agonist alone; higher = enhanced NF-kB activity; details: cytotoxicity flag (confluency mask): not cytotoxic
# How it was run: (§1)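 RAW-Dual macrophages (50,000 cells/well in DMEM, 384-well plates) received 50 nL of library stock by pin tool, then a PRR agonist 1 h later, and were kept at 37 °C, 5% CO2. After 20 hours, supernatant was read for IRF by QuantiLuc luminescence and for NF-κB by QuantiBlue absorbance at 620 nm. Reporter activity is fold change over agonist-alone wells. Cytotoxic wells had IncuCyte confluency below 70% of agonist controls in both mask sets.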
# RAW-Dual [2] = assay: NF-kB SEAP reporter activity, fold change vs agonist alone; cytotoxicity flag (confluency mask): not cytotoxic; higher = enhanced NF-kB activity
# How it was run: as §1
# [3] = library stock concentration (final ~1000-fold dilution): 2 mM, agonist: Imiquimod (TLR7) […]
# [4] = library stock concentration (final ~1000-fold dilution): 2 mM, agonist: MPLA (TLR4) […]
# [5] = agonist: ODN 1826 (TLR9) 0.5 ug/mL
# [6] = agonist: Pam2CSK4 (TLR2/6) 0.1 ug/mL
# [7] = agonist: Pam3CSK4 (TLR2/1) 0.1 ug/mL
# [8] = library stock concentration (final ~1000-fold dilution): 10 mM, agonist: Imiquimod (TLR7) […]
# [9] = library stock concentration (final ~1000-fold dilution): 10 mM, agonist: MPLA (TLR4) […]
smiles,measurement,setting,value
N#Cc1ncccn1,NF-kB SEAP reporter activity,RAW-Dual [1]; [3],1
same,NF-kB SEAP reporter activity,RAW-Dual [1]; [4],1
N#Cc1ncccn1 (library stock concentration (final ~1000-fold dilution): 2 mM),NF-kB SEAP reporter activity,RAW-Dual [2]; agonist: LPS (TLR4) 0.1 ug/mL,1.32
same,NF-kB SEAP reporter activity,RAW-Dual [2]; [5],1.02
same,NF-kB SEAP reporter activity,RAW-Dual [2]; [6],1.09
same,NF-kB SEAP reporter activity,RAW-Dual [2]; [7],1.05
CN1C(C(=O)Nc2ccccn2)=C(O)c2sc(Cl)cc2S1(=O)=O,NF-kB SEAP reporter activity,RAW-Dual [1]; [3],0.891
same,NF-kB SEAP reporter activity,RAW-Dual [1]; [4],1.08
CN1C(C(=O)Nc2ccccn2)=C(O)c2sc(Cl)cc2S1(=O)=O (library stock concentration (final ~1000-fold dilution): 2 mM),NF-kB SEAP reporter activity,RAW-Dual [2]; agonist: LPS (TLR4) 0.1 ug/mL,1.38
same,NF-kB SEAP reporter activity,RAW-Dual [2]; [5],0.936
same,NF-kB SEAP reporter activity,RAW-Dual [2]; [6],0.882
same,NF-kB SEAP reporter activity,RAW-Dual [2]; [7],0.835
C=C1CCC2C(C)(COC(=O)CCC(=O)O)C(OC(=O)CCC(=O)O)CCC2(C)C1C=CC1=CCOC1=O (stereo not drawn),NF-kB SEAP reporter activity,RAW-Dual [1]; [8],0.865
same,NF-kB SEAP reporter activity,RAW-Dual [1]; [9],1.03
C=C1CCC2C(C)(COC(=O)CCC(=O)O)C(OC(=O)CCC(=O)O)CCC2(C)C1C=CC1=CCOC1=O (stereo not drawn) (library stock concentration (final ~1000-fold dilution): 10 mM),NF-kB SEAP reporter activity,RAW-Dual [2]; agonist: LPS (TLR4) 0.1 ug/mL,1.34
same,NF-kB SEAP reporter activity,RAW-Dual [2]; [5],0.979
same,NF-kB SEAP reporter activity,RAW-Dual [2]; [6],1.26
same,NF-kB SEAP reporter activity,RAW-Dual [2]; [7],1.02
Cc1ccc(CNc2ncnc3ccc(-c4ccc(CO)o4)cc23)o1,NF-kB SEAP reporter activity,RAW-Dual [1]; [8],1.07
same,NF-kB SEAP reporter activity,RAW-Dual [1]; [9],1.24
Cc1ccc(CNc2ncnc3ccc(-c4ccc(CO)o4)cc23)o1 (library stock concentration (final ~1000-fold dilution): 10 mM),NF-kB SEAP reporter activity,RAW-Dual [2]; agonist: LPS (TLR4) 0.1 ug/mL,1.16
same,NF-kB SEAP reporter activity,RAW-Dual [2]; [5],1.35
same,NF-kB SEAP reporter activity,RAW-Dual [2]; [6],1.21
same,NF-kB SEAP reporter activity,RAW-Dual [2]; [7],1.4
CC(C)=CCC[C@](C)(O)[C@H]1CC[C@]2(C)[C@@H]3CCC4C(C)(C)[C@@H](O)CC[C@]4(C)[C@H]3C[C@@H](O)[C@@]12C (stereo partly drawn) (library stock concentration (final ~1000-fold dilution): 10 mM),NF-kB SEAP reporter activity,RAW-Dual [2]; agonist: LPS (TLR4) 0.1 ug/mL,1.41
same,NF-kB SEAP reporter activity,RAW-Dual [2]; [5],0.693
same,NF-kB SEAP reporter activity,RAW-Dual [2]; [6],0.848
same,NF-kB SEAP reporter activity,RAW-Dual [2]; [7],0.882
CC(C)=CCC[C@](C)(O)[C@H]1CC[C@]2(C)[C@@H]3CCC4C(C)(C)[C@@H](O)CC[C@]4(C)[C@H]3C[C@@H](O)[C@@]12C (stereo partly drawn),NF-kB SEAP reporter activity,RAW-Dual [1]; [8],0.934
same,NF-kB SEAP reporter activity,RAW-Dual [1]; [9],1.14
N#Cc1c(Oc2ccc(F)c(NC(=O)Cc3cccc(C(F)(F)F)c3)c2)ccc2nc(NC(=O)C3CC3)sc12,NF-kB SEAP reporter activity,RAW-Dual [1]; [8],1.02
same,NF-kB SEAP reporter activity,RAW-Dual [1]; [9],1.05
N#Cc1c(Oc2ccc(F)c(NC(=O)Cc3cccc(C(F)(F)F)c3)c2)ccc2nc(NC(=O)C3CC3)sc12 (library stock concentration (final ~1000-fold dilution): 10 mM),NF-kB SEAP reporter activity,RAW-Dual [2]; agonist: LPS (TLR4) 0.1 ug/mL,1.25
same,NF-kB SEAP reporter activity,RAW-Dual [2]; [5],0.983
same,NF-kB SEAP reporter activity,RAW-Dual [2]; [6],0.354
same,NF-kB SEAP reporter activity,RAW-Dual [2]; [7],0.396
COC(=O)C1=COC(OC2OC(CO)C(O)C(O)C2O)C2C1CC(O)C2C (stereo not drawn) (library stock concentration (final ~1000-fold dilution): 10 mM),NF-kB SEAP reporter activity,RAW-Dual [2]; agonist: LPS (TLR4) 0.1 ug/mL,1
same,NF-kB SEAP reporter activity,RAW-Dual [2]; [5],0.942
same,NF-kB SEAP reporter activity,RAW-Dual [2]; [6],1.13
same,NF-kB SEAP reporter activity,RAW-Dual [2]; [7],1.04
COC(=O)C1=COC(OC2OC(CO)C(O)C(O)C2O)C2C1CC(O)C2C (stereo not drawn),NF-kB SEAP reporter activity,RAW-Dual [1]; [8],0.93
same,NF-kB SEAP reporter activity,RAW-Dual [1]; [9],1.05
Cl.OC(CCN1CCCC1)(c1ccccc1)C1CCCCC1 (stereo not drawn),NF-kB SEAP reporter activity,RAW-Dual [1]; [8],0.978
same,NF-kB SEAP reporter activity,RAW-Dual [1]; [9],1.11
Cl.OC(CCN1CCCC1)(c1ccccc1)C1CCCCC1 (stereo not drawn) (library stock concentration (final ~1000-fold dilution): 10 mM),NF-kB SEAP reporter activity,RAW-Dual [2]; agonist: LPS (TLR4) 0.1 ug/mL,1.32
same,NF-kB SEAP reporter activity,RAW-Dual [2]; [5],0.717
same,NF-kB SEAP reporter activity,RAW-Dual [2]; [6],1.17
same,NF-kB SEAP reporter activity,RAW-Dual [2]; [7],1.09

# — the supplement of paper PMC10037445
